According to PubChem BioAssay AID488969 (Vanderbilt High Throughput Screening Facility, 2010):
Over roughly 110,000 compounds, “z-score” has its median near -0.1; the highest 2% begin near 2. Some of the results follow.

The compounds below were run against Metabotropic glutamate receptor 8 (Rattus norvegicus) (UniProt P70579) (assay: rat mGluR8 modulators via GIRK flux, primary screen, cell-based, thallium flux, HTS (AID 488969)). Settings: HEK293 rat mGluR8, GIRK (G protein-gated inwardly rectifying potassium channel) thallium flux, FluoZin2; at 10 µM; stronger effect = higher value; submaximal glutamate (EC20) added with thallium.
Chain of UniProt P70579 (P70579 whole entry, looked up): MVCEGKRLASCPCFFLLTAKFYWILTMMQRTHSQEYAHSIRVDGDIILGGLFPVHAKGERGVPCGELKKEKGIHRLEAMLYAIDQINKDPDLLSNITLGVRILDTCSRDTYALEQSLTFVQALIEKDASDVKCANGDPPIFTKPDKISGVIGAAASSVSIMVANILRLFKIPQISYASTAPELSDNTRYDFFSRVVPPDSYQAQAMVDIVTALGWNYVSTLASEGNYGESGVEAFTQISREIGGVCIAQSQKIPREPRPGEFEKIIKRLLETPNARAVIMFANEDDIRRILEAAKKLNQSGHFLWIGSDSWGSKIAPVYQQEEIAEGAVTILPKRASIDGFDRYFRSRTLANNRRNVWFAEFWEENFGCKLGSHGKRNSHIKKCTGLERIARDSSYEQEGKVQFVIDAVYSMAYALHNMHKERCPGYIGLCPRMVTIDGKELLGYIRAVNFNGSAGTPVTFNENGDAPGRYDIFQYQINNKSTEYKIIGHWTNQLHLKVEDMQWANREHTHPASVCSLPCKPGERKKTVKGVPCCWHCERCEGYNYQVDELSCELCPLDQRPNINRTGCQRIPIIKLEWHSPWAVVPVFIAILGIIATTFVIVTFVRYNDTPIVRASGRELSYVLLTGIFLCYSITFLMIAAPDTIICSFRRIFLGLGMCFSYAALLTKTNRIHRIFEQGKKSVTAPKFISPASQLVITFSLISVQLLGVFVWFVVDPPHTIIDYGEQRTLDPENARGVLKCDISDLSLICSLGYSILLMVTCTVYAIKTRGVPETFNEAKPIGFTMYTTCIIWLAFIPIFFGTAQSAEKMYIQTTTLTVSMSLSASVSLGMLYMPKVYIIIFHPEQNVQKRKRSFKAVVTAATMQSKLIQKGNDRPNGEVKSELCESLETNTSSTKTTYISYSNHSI

SMILES	z-score
CC(C)N=C(NC#N)SCc1ccc(Br)cc1	-0.212
CCCn1c(SCC(=O)c2ccc(OC)c(OC)c2)nc2c1c(=O)n(C)c(=O)n2C	-0.237
COc1ccc(N(CC(=O)NC2CCCC2)C(=O)CCC(=O)Nc2cc(C)on2)c(OC)c1	0.201
O=C(O)CCCCc1nc2ccccc2s1	0.604
Cc1ccc(C)c(NS(=O)(=O)c2cc(Br)cnc2N)c1	-0.508
O=C(NNC(=O)c1cccs1)c1ccc(Br)o1	-0.207
O=C(/C=C/c1ccc(Br)cc1)N1CCN(c2cccc(C(F)(F)F)c2)CC1	-0.0112
COc1ccc2cc(CN(CCO)C(=O)c3ccccc3F)c(=O)[nH]c2c1	-0.309
COC(=O)C1=NN[C@H](C(=O)OC)[C@H]1c1ccccc1	-0.246
O=C(/C=C/c1ccc(Cl)cc1Cl)c1nc2ccccc2[nH]1	0.0995
CC(C)(C)c1ccc(Oc2ccc(N)cc2)cc1	-0.54
CC1(C)CC(=O)C2=C(C1)N=c1s/c(=C/c3ccc(F)c(F)c3)c(=O)n1C2c1ccc(F)cc1 (stereo unspecified)	-0.188
Cc1cc(NC(=O)COc2ccccc2)n(-c2ccccc2)n1	-0.119
Cc1ccc(-n2nnnc2-c2cnoc2-c2cccc(F)c2)cc1	0.0579
N=C(CC1CC(=O)NC(=O)C1)C1=C(O)CCCC1=O	2.31
CCOc1ccc2nc(SCC(=O)Nc3cc4c(cc3C(C)=O)OCO4)[nH]c2c1	-0.347
Nc1nc(NCc2ccccc2)nc(NCc2ccccc2)c1[N+](=O)[O-]	-0.14
Cn1nc(C(=O)Nc2cccc(C(F)(F)F)c2)c2ccccc2c1=O	-0.298
CCOc1ccc(-n2cc(C(=O)NC(C)C)c3cc(OC)c(OC)cc3c2=O)cc1	0.304
O=Cc1c(-[n+]2ccccc2)nc([O-])n1-c1ccccc1	-0.106
CN1C(=O)c2cccc(NC(=O)C3CCCCC3)c2C1=O	-0.37
Cc1cc(C)nc(N2CCCC(C(=O)NC3CCCC3)C2)n1 (stereo unspecified)	-0.0689
Cc1ccc(Nc2c([N+](=O)[O-])cc(C(=O)N3CC(=O)Nc4ccccc43)cc2[N+](=O)[O-])c(C)c1	-0.162
CNC(=O)c1csc(-c2ccncc2)n1	0.0926

SMILES	z-score
CCOc1cc(CNCc2ccncc2)cc(Br)c1OCc1ccccc1F	0.172
CCN(CC)C(=O)c1c(Cl)nc(C)c([N+](=O)[O-])c1C	0.209
Cc1ccc2c(c1)N(CCC(=O)NCc1cccs1)C(=O)C(C)O2 (stereo unspecified)	1.49
Cc1cc(Cl)c(S(=O)(=O)NCCC(=O)O)cc1OCC(N)=O	-0.441
COc1ccc(-c2c(C)[nH]n3c(=O)c(Cc4ccccc4)c(C)nc23)cc1	1.53
COc1ccc(N2C(=O)C3CCCN3C2c2ccc(C)cc2)cc1 (stereo unspecified)	0.199
Cc1ccnc(NC(=O)COc2ccc3oc4c(c3c2)CCCC4)c1	-0.134
CCSC(C)CC1C/C(=N/O)c2c(C)noc2C1 (stereo unspecified)	0.244
COc1ccc(Cl)cc1-c1n[nH]c(=S)n1C	-0.0209
CNC(=O)COC(=O)c1cccnc1SC	0.00689
CCCCCCC1C(C#N)=C(N)OC2=C1C(=O)CC(C)(C)C2 (stereo unspecified)	-0.0797
O=C(N/N=C/c1ccccc1)c1sccc1OCc1ccc(F)cc1	-0.729
C/C(N)=C(/C#N)C(=O)COC(=O)COc1ccc(Cl)cc1C	-0.236
COc1cc(NC(=O)c2cccs2)c(C(=O)OCC(=O)NC(=O)NC(C)(C)C)cc1OC	-0.442
CCCN1Cc2cccc(C(=O)NC3CCCC3)c2C1=O	-0.618
O=C(c1ccco1)N1CCN(C(=O)c2ccc(Cn3cc(Br)cn3)o2)CC1	0.329
CCOC(=O)c1c(C)n(OC)c2ccc3c(no[n+]3[O-])c12	-1.05
Cc1cc(-c2csc(NC(=O)c3ccc(S(=O)(=O)N(C)C)cc3)n2)c(C)n1-c1ccccc1	-0.127
CCOC(=O)c1cnc2c(c(C)nn2C)c1Oc1ccc(Cl)cc1	-0.527
O=c1c2c3c(sc2nc2sc(CN4CCOCC4)cn12)CCCC3	0.00926
CCc1ccccc1NS(=O)(=O)c1ccc2[nH]cc(C(=O)NCC3CCCO3)c(=O)c2c1 (stereo unspecified)	0.199
CCC(C)c1ccccc1OCCn1ccnc1 (stereo unspecified)	-0.166
CCCCNC(=O)CN(c1cccc(Br)c1)S(C)(=O)=O	-0.415
Cc1ccc(N2CCN(C3=NC(=O)C(Cc4ccccc4)S3)CC2)cc1 (stereo unspecified)	-0.114

SMILES	z-score
CC(C)c1ccc(C(=O)CSc2n[nH]c(-c3ccncc3)n2)cc1	-0.287
Nc1nnc(SCC(=O)Nc2ccc3c(c2)OCCO3)s1	0.135
O=C(Cn1nnc(-c2ccccc2F)n1)Nc1ccc2c(c1)OCO2	2.41
CCCCS(=O)(=O)Nc1ccc(C(=O)NCC2CCCO2)cc1 (stereo unspecified)	0.2
Cc1c(C(=O)N2CCN(c3ccccc3)CC2)sc2ncnc(N3CCC(C)CC3)c12	-0.36
O=C(CCN1CCN(c2ccccc2F)CC1)Nc1ccccc1F	-0.475
CCOC(=O)Cc1csc(NC(=O)c2ccncc2)n1	-0.235
COC(=O)Cc1cn(-c2ncc(C(F)(F)F)cc2Cl)c2ccccc12	-0.231
Cc1ccc(-n2c(Cc3cccs3)nnc2SCC(N)=O)cc1	0.131
O=C(NCc1cccs1)C1CCN(S(=O)(=O)c2ccc(Br)s2)CC1	0.146
CCn1c2ccccc2c2cc(NC(=O)c3cc(OC)c(OC)c(OC)c3)ccc21	-0.658
CC1(C)CC(=O)C2=C(C1)N(c1cccnc1)C(N)=C(C#N)C2c1cccs1 (stereo unspecified)	-0.634
CN(c1ccc(OCC(=O)Nc2ccc3[nH]c(=O)[nH]c3c2)cc1)S(=O)(=O)c1ccc(Cl)cc1	0.0821
Cc1ccc(NC(=O)N/C=C/c2ccc(Cl)cc2)cc1	0.203
Cc1ccc(C(=O)N/N=C\c2cccn2C)cn1	0.0922
Cc1oc2c(C)c(O)ccc2c(=O)c1-c1ccc2ccccc2n1	-0.0381
O=C(CCl)Nc1cccn2ncnc12	0.184
Cc1ccc(S(=O)(=O)N2CCOCC2)cc1NC(=O)COC(=O)C1COc2ccccc2O1 (stereo unspecified)	-0.804
CCCC(=O)C1CCN(Cc2ccccc2)CC1	-0.0406
CC(=O)CSc1nc(C(F)(F)F)cc(=O)n1-c1ccccc1	-0.00409
O=c1c2ccccc2nc(SCc2cc(F)cc3c2OCOC3)n1Cc1ccco1	0.0405
Cc1cc(NS(=O)(=O)c2ccc(NC(=O)Cc3cccs3)cc2)no1	-0.115
Cc1ccc(C)c(N2CC(=O)N(c3cc(C)ccc3C)CC2=O)c1	-0.264
